The structures appear in SMILES notation. About 65 (0.1%) of roughly 45,000 compounds were called active. Calls come from the whole dose curve; as a rule, active = well fitted activation curve with a large enough effect; inconclusive = small, poorly fitted or top-dose-only effect; inactive = no such curve, though single readings can be large or run the other way. The list shows a part of the results.

Chain of UniProt P54803 (P54803 whole entry, looked up): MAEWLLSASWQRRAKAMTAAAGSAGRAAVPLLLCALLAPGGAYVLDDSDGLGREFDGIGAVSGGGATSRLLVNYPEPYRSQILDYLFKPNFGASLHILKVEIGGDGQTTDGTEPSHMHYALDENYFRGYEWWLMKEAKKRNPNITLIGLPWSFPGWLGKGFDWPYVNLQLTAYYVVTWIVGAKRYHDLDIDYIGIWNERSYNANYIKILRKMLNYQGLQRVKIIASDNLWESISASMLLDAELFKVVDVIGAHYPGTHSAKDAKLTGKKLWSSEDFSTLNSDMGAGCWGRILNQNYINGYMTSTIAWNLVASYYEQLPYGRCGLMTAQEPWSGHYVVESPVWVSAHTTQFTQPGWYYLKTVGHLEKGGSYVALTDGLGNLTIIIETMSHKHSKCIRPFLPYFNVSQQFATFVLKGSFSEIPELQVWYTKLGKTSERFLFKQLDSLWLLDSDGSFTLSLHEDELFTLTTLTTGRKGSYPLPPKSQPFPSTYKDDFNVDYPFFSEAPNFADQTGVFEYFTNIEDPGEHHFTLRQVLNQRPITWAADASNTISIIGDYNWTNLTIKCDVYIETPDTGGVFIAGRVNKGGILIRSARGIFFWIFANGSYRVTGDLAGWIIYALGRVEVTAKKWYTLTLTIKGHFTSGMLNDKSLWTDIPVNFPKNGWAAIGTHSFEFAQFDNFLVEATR

For the experiment, the target named is Galactocerebrosidase (Homo sapiens) (UniProt P54803). As to the kind of experiment: A Novel Cell-Based Assay to Identify Small Molecules for B -Galactocerebrosidase. Note: 0% is about no effect; nearly all actives have a fitted effect of over 65% in size. Conditions: 145M-Twi-hGALC-G270D cells, HMU-beta-Gal fluorescence, 48 h; series mostly up to 57.5 µM; activation: at the top concentration. In short, it runs like this:
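qHTS, 1536-well; 145M-Twi-hGALC-G270D cells (WT line also made) in DMEM/F12 + 10% FBS; compound incubation on live cells; HMU-β-gal 0.1 mM final, pH 5.2, NaTC; carbonate stop; fluorescence increase = enhanced residual activity.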
As to `COc1ccc(C)cc1NC(=O)C(=O)NCC(c1cccnc1)N1CCc2ccccc21` (stereo unspecified), the “activation” value was inactive: -9.36%. Next, `COc1ccc(NC(=O)CSc2nccn2Cc2ccc3c(c2)OCO3)cc1`: inactive: -12.6%; `CCn1cc(C(=O)O)c(=O)c2cnc(N3CCNCC3)nc21`: inactive: -12.9%; `O=C1CC(c2ccccc2)Sc2ccccc2N1Cc1ccc(F)cc1` (stereo unspecified): inactive: -7.04%.

`Cc1ccc(-n2c3c(cc(C(=O)Nc4ccccc4C(N)=O)c2=O)C(=O)CC(C)(C)C3)cc1`: the “activation” value is inactive: -1.4%. Next, `CCOc1ccccc1NC(=O)c1c(NC(=O)COc2ccccc2)sc2c1CCCC2`: inactive: -1.2%.

Take `Cc1cc(C)c(NC(=O)CSc2ccc(-c3ccccn3)nn2)c(C)c1`: the “activation” value was inactive: -2.52%. Next, `CN(C)CCNC(=O)CN1C(=O)COc2ccc(S(=O)(=O)N3CCCC3)cc21`: inactive: -13.8%; `COc1ccc(C2=Nc3ccccc3NC(c3cccs3)=N2)cc1`: inactive: -25.6%. Consider `COc1cccc(NC(=O)CCC(=O)N2Cc3ccccc3Oc3ncccc32)c1`, for which the “activation” value was inactive: -17.8%. For the molecule `CCNS(=O)(=O)c1ccc(NC(=O)CSc2nc(-c3ccco3)cc(C(F)(F)F)n2)cc1`, the “activation” value is inactive: -0.0273%. Turning to `COc1ccccc1CNC(=O)c1c[nH]c2ccc(S(=O)(=O)Nc3cc(C)cc(C)c3)cc2c1=O`, the “activation” value was inactive: -3.59%.

In the case of `CCCOc1ccc(CNC(=O)CCCn2ncn3c(cc4sc(CC)cc43)c2=O)cc1`, the “activation” value is inactive: -9.37%. As to `Cc1cccc(Nc2nnc(-c3ccc(C)c(S(=O)(=O)N4CCCCC4)c3)c3ccccc23)c1`, the “activation” value is inactive: -20.7%. `CC(C)OC(=O)c1cccc(NC(=O)Cn2nnc3sc4c(c3c2=O)CCCC4)c1`: the “activation” value was inactive: -1.58%. With `Cc1ccc(-n2cc(-c3ccccc3)c3c(N4CCCCC4)ncnc32)cc1` the figure was inactive: -13.2%; with `Cc1ccc(CNC(=O)CSc2nc3ccsc3c(=O)n2Cc2ccccc2F)cc1`, inactive: 23.8%; with `CCN(CC)c1ccc(NC(=O)c2cccn2-c2nnc(N3CCCCC3)s2)c(C)c1`, inactive: -18.8%. Next, `Cc1ccc(S(=O)(=O)N2CCN(C(=O)c3cc(-c4ccc(Br)cc4)n[nH]3)CC2)c(C)c1`: inactive: 7.09%.

Take `Cc1ccc(NC(=O)C(Cc2ccccc2)NS(=O)(=O)c2ccc3c(c2)c(=O)n(C)c(=O)n3C)c(C)c1` (stereo unspecified): the “activation” value was inactive: -11.7%.

Consider `Cc1c(Cl)cccc1-n1ncc(C(=O)N2CCN(c3ncccn3)CC2)c1C1CCN(C(=O)OC(C)(C)C)CC1`, for which the “activation” value was inactive: 15.1%.

Regarding `CCN(C(=O)c1cn(CC)c(=O)c2cc(OC)c(OC)cc12)c1ccccc1F`, the “activation” value is inactive: -1.81%. Next, `Cc1cccc(NC(=O)C(=O)NCCc2csc(-c3ccc(F)cc3)n2)c1C`: inactive: -21.8%; `COc1ccc(CCC(=O)NC2CC(=O)N(c3ccc(OC)cc3)C2)cc1` (stereo unspecified): inactive: 6.07%. For the molecule `Cc1cc(C)c2c(=O)cc(CSc3n[nH]c(C)n3)[nH]c2c1`, the “activation” value was inactive: -3.36%. On to `CCC(C(=O)Nc1cc(F)ccc1F)n1nc(C)c2c(C)n(-c3ccc(C)cc3)nc2c1=O` (stereo unspecified), for which the “activation” value was inactive: -9.1%.

For `COc1ccc(NC(=O)CN2C(=O)c3cccnc3Sc3ccccc32)cc1OC`, the “activation” value was inactive: -12.8%. Consider `CC1=C(C(=O)Nc2cc(Cl)ccc2C)C(c2cccs2)n2ncnc2N1` (stereo unspecified), for which the “activation” value is inactive: -22.4%. Next, `Cc1cccc(N2CCN(C(=O)c3ccc(Nc4nc5ccccc5n5nnnc45)cc3)CC2)c1C`: inactive: -13.5%; `CCOC(=O)c1ccc(NC(=O)C2=C(C)Nc3nc(CCCO)nn3C2c2ccc(OC)cc2)cc1` (stereo unspecified): inactive: -17.8%; `Cc1cc(N2CCCCC2)nc2ccc(NC(=O)CCC(=O)N3CCN(c4ccccc4)CC3)cc12`: inactive: -26.5%. With `COc1cc(C(=O)Nc2ccccc2-c2nc(-c3ccc(C)cc3)no2)cc(OC)c1OC` the figure was inactive: -9.12%; with `O=C(CSCc1ccc(F)cc1)N1CCc2c([nH]c3ccccc23)C1c1ccc(Cl)cc1` (stereo unspecified), inactive: -9.8%. With `COc1ccc(CCNC(=O)C(C)n2c(=O)cc(-c3ccccc3)c3c(C)nn(C)c32)cc1OC` (stereo unspecified) the figure was inactive: -5.08%; with `CCSc1nc(-c2ccccc2F)nc2c1Cc1c(CO)cnc(C)c1O2`, inactive: -12.5%; with `COc1cccc(N2CCN(C(=O)c3nn(C)c4c3CSc3ccc(C)cc3-4)CC2)c1`, inactive: -17.2%.

For the molecule `CCC(=O)N1CCc2cc(CNC(=O)c3ccc(F)cc3)ccc21`, the “activation” value was inactive: -8.08%.

On to `Cc1ccc(-c2nc3sccn3c2Nc2ccc(C)c(C)c2)cc1`, for which the “activation” value is inactive: 1.64%.

With `CCOc1ccc(N(CC)C(=O)c2cc3c(s2)-c2ccccc2OC3)cc1`, the “activation” value is inactive: -0.474%.

Turning to `CC1CCN(c2nc3ccc(C(=O)N4CCN(c5ccccc5)CC4)cc3s2)CC1`, the “activation” value is inactive: -9.76%.

For the molecule `CCOC(=O)c1cc(OC(=O)c2ccccc2Cl)n(-c2ccccc2)n1`, the “activation” value is inactive: -18%. With `COc1ccc(OC)c(NC(=O)[C@H](CSCc2ccccc2)N2Cc3ccccc3C2=O)c1` the figure was inactive: -10.8%; with `COC(=O)c1cc2sc(Cl)cc2n1CC(=O)Nc1cc(C)cc(C)c1`, inactive: -34.1%. With `O=C(NCc1ccccc1F)c1ccc(CSc2nc3cccnc3n2Cc2ccccc2)cc1` the figure was inactive: -11.9%; with `Cc1nn2c(=O)cc(COC(=O)c3ccccc3NC(=O)COc3ccccc3C)nc2s1`, inactive: -7.07%; with `Cc1ccc(SCc2nc(-c3ccc(C(=O)NCCc4ccc(Cl)cc4)cc3)oc2C)cc1`, inactive: -10.8%. On to `CCN(CC)CCOc1ccc(Cc2ccccc2)cc1`, for which the “activation” value was inactive: -4.99%.

Regarding `Cc1ccccc1NC(=O)Cn1c(=O)n(Cc2ccccc2)c(=O)c2c(C)c(C)sc21`, the “activation” value was inactive: -8.58%. Consider `N#CC1=C2SCN(C3CCCCC3)CN2C(=O)CC1c1ccc(Cl)cc1` (stereo unspecified), for which the “activation” value was inactive: -5.12%. As for `COC(=O)c1cc2occc2n1CC(=O)Nc1ccc(N(C)C)cc1`, the “activation” value is inactive: -7.92%. Next, `Cc1ccc(CNC(=O)Cn2c(=O)n(-c3ccc(C)cc3)c(=O)c3c2c2cc(C)ccc2n3C)cc1`: inactive: 12.1%; `Cc1ccc(CNC(=O)C(=O)NCC(c2ccco2)S(=O)(=O)c2ccccc2)cc1` (stereo unspecified): inactive: -8.56%; `N#Cc1nc(-c2ccc(COc3ccccc3)o2)oc1N1CCCCC1`: inactive: -4.9%. In the case of `CCCN1CCN(CCCNC(=O)c2ccc3nc(Cc4ccccc4)oc3c2)CC1`, the “activation” value was inactive: -14.3%. Next, `CCOc1ccc(CN(CCc2ccc3c(c2)OCO3)Cc2cc(OC)c(OC)cc2OC)cc1`: inactive: -2.36%; `CCCCN1CC(c2nc3ccccc3n2CCCCOc2cccc(C)c2C)CC1=O` (stereo unspecified): inactive: -36.8%; `COc1ccc2c(CNCCc3cccs3)c(C(=O)O)n(Cc3ccc(F)cc3Cl)c2c1`: inactive: -22.6%.

As for `Cn1c(=O)cc(SCC(=O)N2CCN(c3ccccc3F)CC2)c2ccccc21`, the “activation” value is inactive: -12.2%. With `COc1ccc(-c2cc3nc(C4CCN(C(=O)OC(C)(C)C)CC4)c(C(=O)Nc4cc(C)cc(C)c4)cn3n2)cc1` the figure was inactive: -11.5%; with `CCC(Sc1nnc2c3ccccc3n(CC)c2n1)C(=O)Nc1nnc(C(C)C)s1` (stereo unspecified), inactive: -26.2%; with `Cc1cc(-n2c(C)nc3ccccc3c2=O)ccc1NC(=O)c1ccccc1[N+](=O)[O-]`, inactive: -16.2%.

These data come from PubChem BioAssay AID1159614 (National Center for Advancing Translational Sciences (NCATS), 2016).
